Experimental data published in the supplement of paper PMC6135742.
Counter-ions that a name gives are not always drawn. ± gives the standard deviation of the averaged measurements. The full ranking holds about 2,600 compounds; the median of “MBP+ mature oligodendrocyte number relative to DMSO vehicle control” is about -0.34, and the highest 2% start at about 13. Some of the results follow.

Each compound was assayed on jimpy (Plp1 jimpy) mouse iPSC-derived oligodendrocyte progenitor cells (assay: MBP+ mature oligodendrocyte number relative to DMSO vehicle control (SDs above negative control mean); higher = more surviving jimpy oligodendrocytes (rescue)). Conditions: 10 µM; 3 days.
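Note: 10 µM single dose with 3-day oligodendrocyte differentiation.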

SMILES | MBP+ mature oligodendrocyte number
CCC(C)n1ncn(-c2ccc(N3CCN(c4ccc(OCC5COC(Cn6cncn6)(c6ccc(Cl)cc6Cl)O5)cc4)CC3)cc2)c1=O (stereo unspecified) [Itraconazole] | < -3.97
C[C@H]1[C@H](OC(=O)CCC(=O)O)O[C@@H]2O[C@@]3(C)CC[C@H]4[C@H](C)CC[C@@H]1[C@@]24OO3 [Artesunate] | < -3.97
CC(N)C(=O)OC(C)(C)Cc1ccc(Cl)cc1 (stereo unspecified) [Alaproclate hydrochloride] | 0.313
CC(C)NCC(O)c1cc(O)cc(O)c1 (stereo unspecified) [Metaproterenol hemisulfate] | -0.676
O=[N+]([O-])c1cc2nc(O)c(O)nc2cc1[N+](=O)[O-] | 2.02
CC(=O)/C(C)=N/O [2,3-Butanedione monoxime] | -0.865
CCCCCCCCCCCCCCSCC(=O)O [Tetradecylthioacetic acid] | 0.00298
O=C(O)CN(CCN(CC(=O)O)CC(=O)O)CCN(CC(=O)O)CC(=O)O [Diethylenetriaminepentaacetic acid] | -1.59
CC(C)(CO)Cc1cc(C(C)(C)C)c(O)c(C(C)(C)C)c1 | 0.431
C#CCN(C)CCCOc1ccc(Cl)cc1Cl [Clorgyline hydrochloride] | 2.81
CCc1cnn2c(NCc3ccc[n+]([O-])c3)cc(N3CCCC[C@H]3CCO)nc12 | < -6.01
C[C@@]1(c2cc(-c3cncnc3)c(F)cc2F)CCSC(N)=N1 | -3.62
COc1ccccc1N1CCN(CCCNc2cc(=O)n(C)c(=O)n2C)CC1 [Urapidil hydrochloride] | 1.36
COc1ccccc1N1CCN(CCCNc2cc(=O)n(C)c(=O)n2C)CC1 [Urapidil HCl] | 2.68
O=C(Nc1cccc(Nc2ncc(Br)c(NCCc3cnc[nH]3)n2)c1)N1CCCC1 | -6.61
COc1nc(N)nc2c1ncn2[C@@H]1O[C@H](CO)[C@@H](O)[C@@H]1O [Nelarabine] | -0.851
O=C(CCCN1CCC(O)(c2cccc(C(F)(F)F)c2)CC1)c1ccc(F)cc1 [Trifluperidol hydrochloride] | 0.681
O=C(/C=C/C=C/c1ccc2c(c1)OCO2)N1CCCCC1 [Piperine] | 1.07
O=c1c2ccccc2nc2n1CCc1c-2[nH]c2ccccc12 [Rutaecarpine] | -1.73 ± 0.48
CN(C)c1ccccc1CN1CCCN(Cc2ccccc2N(C)C)C1c1ccncc1 | < -3.85
CCC(=O)OCC(=O)[C@@]1(OC(=O)CC)[C@@H](C)C[C@H]2[C@@H]3CCC4=CC(=O)C=C[C@]4(C)[C@@]3(Cl)[C@@H](O)C[C@@]21C [Beclomethasone dipropionate] | 7.8
COCC(=O)O[C@]1(CCN(C)CCCc2nc3ccccc3[nH]2)CCc2cc(F)ccc2[C@@H]1C(C)C [Mibefradil dihydrochloride] | < -3.97
C[C@H](CSC(=O)c1ccccc1)C(=O)N1C[C@@H](Sc2ccccc2)C[C@H]1C(=O)O [Zofenopril calcium] | -1.43
CN1CCOC(c2ccccc2)c2ccccc2C1 (stereo unspecified) [Nefopam HCl] | 0.913
N=C(N)NCCCCN [Agmatine sulfate] | -1.14
CN1CCC(=C2c3ccccc3CCc3sccc32)CC1 [Pizotifen Malate] | -6.09

SMILES | MBP+ mature oligodendrocyte number
COc1ncc(-c2ccc3nccc(-c4ccnnc4)c3c2)cc1NS(=O)(=O)c1ccc(F)cc1F | < -6.01
CCN(CC)CCOc1ccc(C(=C(Cl)c2ccccc2)c2ccccc2)cc1 [Clomifene citrate] | < -4.81
COc1ccc(NC(=O)c2ccc(-c3ccc(-c4noc(C)n4)cc3C)cc2)cc1N1CCN(C)CC1 | < -3.97
CCCCNc1ccc(C(=O)OCCN(C)C)cc1 [Tetracaine hydrochloride] | 0.753
CCCCNc1ccc(C(=O)OCCN(C)C)cc1 [Tetracaine HCl] | 1.01
COc1ccc2c(c1)CC[C@@H]1[C@@H]2CC[C@]2(C)[C@@H](NCCCCCCN3C(=O)CCC3=O)CC[C@@H]12 | 0.774
CCCCCOC(=O)Nc1nc(=O)n([C@@H]2O[C@H](C)[C@@H](O)[C@H]2O)cc1F [Capecitabine] | -0.15 ± 1.4
COc1ccccc1N1CCN(CCCCNC(=O)c2ccc3ccccc3c2)CC1 | -1.65
Cc1cc(-c2ncc(CC(=O)Nc3ccc(-c4cnccn4)cn3)cc2C)ccn1 | 13.8
Cc1cnc(C(=O)NCCc2ccc(S(=O)(=O)NC(=O)NC3CCCCC3)cc2)cn1 [Glipizide] | 0.00129 ± 0.99
CC(C)NC[C@H](O)COc1cccc2[nH]ccc12 [S(-)-Pindolol] | -0.805
CN1CCC(NC(=O)c2cc(-c3c(O)cc(O)cc3Oc3ccc([N+](=O)[O-])cc3)on2)CC1 | -6.27
O=C1[C@H](CC[C@H](O)c2ccc(F)cc2)[C@@H](c2ccc(O)cc2)N1c1ccc(F)cc1 [Ezetimibe] | 2.95
COC(=O)C1=C(C)NC(C)=C(C(=O)OCCN(C)Cc2ccccc2)C1c1cccc([N+](=O)[O-])c1 (stereo unspecified) [Nicardipine hydrochloride] | -0.519
COC(=O)C1=C(C)NC(C)=C(C(=O)OCCN(C)Cc2ccccc2)C1c1cccc([N+](=O)[O-])c1 (stereo unspecified) [Nicardipine HCl] | 4.12
Cc1nc(C#Cc2ccnc(Cl)c2)c(C)n1-c1ccc(OC(F)(F)F)cc1 | -4.58
OC[C@H]1O[C@@H](c2ccc(Cl)c(Cc3ccc(O[C@H]4CCOC4)cc3)c2)[C@H](O)[C@@H](O)[C@@H]1O | 3.51
Cc1cc(-c2ccc(CC(=O)Nc3ccc(-c4cccnc4)cc3)cc2)ccn1 | 23.2
COCCOc1ccc2c(c1)ncn2-c1ccc2cccc(N3CCC(N)CC3)c2n1 | < -5.15
Cc1cc(Nc2cc(N3CCN(C)CC3)nc(/C=C/c3ccccc3)n2)n[nH]1 | < -6.7
COC(=O)C1=C(C)NC(C)=C(C(=O)OCC(C)C)C1c1ccccc1[N+](=O)[O-] (stereo unspecified) [Nisoldipine] | < -5.15
Oc1cc(O)c(Cl)cn1 [Gimeracil] | 0.883
COc1ccc2cc(OCC3(C(=O)O)CN(C(=O)c4ccc(F)cc4)C3)ccc2c1 | -0.0098
CC1(C)CNc2cc(NC(=O)c3cccnc3NCc3ccncc3)ccc21 [Motesanib Diphosphate (AMG-706)] | -1.9
O=C1CCc2ccc(OCCCCN3CCN(c4cccc(Cl)c4Cl)CC3)cc2N1 [Aripiprazole] | 5.11
